The supplement of paper PMC9446081
Among all 39,000 compounds or so, about 220 (0.56%) showed activity. Some of the results follow.
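Also: static incubation at 37 °C against the wild-type strain, values averaged over two biological replicates.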

These compounds were tested on Escherichia coli K-12 BW25113 (assay: relative growth (OD600 normalised to plate interquartile mean) (fraction); higher = less growth inhibition, active = 0.2 or less). Details: 50 µM; LB; incubation time: overnight (16-24 h).
`Nc1cccc(O)c1` was tested, and the relative growth was inactive: 0.972. With `O=C(C[C@H]1CC[C@@H](NS(=O)(=O)c2ccccc2F)[C@@H](CO)O1)NCCCN1CCOCC1` the relative growth was inactive: 0.989. For `C[C@@H]1CN([C@H](C)CO)C(=O)c2cccc(NC(=O)c3nc4ccccc4s3)c2O[C@@H]1CN(C)Cc1ccc(Oc2ccccc2)cc1`, the relative growth was inactive: 0.988. In the case of `C[C@H](CO)N1C[C@H](C)[C@@H](CN(C)Cc2ccc(C(F)(F)F)cc2)Oc2c(NS(=O)(=O)c3ccc(Cl)cc3)cccc2C1=O`, the relative growth is reported as inactive: 1. In the case of `O=C(C[C@@H]1CC[C@H](NC(=O)CN2CCOCC2)[C@H](CO)O1)NCc1cccc(F)c1`, the relative growth is reported as inactive: 0.986. For `O=C(C[C@H]1CC[C@@H]2[C@H](COC[C@@H](O)CN2C(=O)Nc2ccc(F)cc2)O1)NCCCN1CCOCC1`, the relative growth was inactive: 0.972. In the case of `COc1ccc(CN(C)C[C@@H]2Oc3ccc(NC(=O)CCCCCC(=O)Nc4ccccc4N)cc3CC(=O)N([C@H](C)CO)C[C@@H]2C)cc1`, the relative growth is reported as inactive: 1. With `NS(=O)(=O)c1cc2c(cc1Cl)NCNS2(=O)=O` the relative growth was inactive: 1.03. `COc1ccc(S(=O)(=O)N(C)C[C@@H]2OCCCC[C@@H](C)Oc3ccc(NS(=O)(=O)c4ccc(Cl)cc4)cc3C(=O)N([C@H](C)CO)C[C@@H]2C)cc1` was tested, and the relative growth was inactive: 1.04. With `COCC(=O)Nc1ccc2c(c1)C(=O)N(C)C[C@@H](OC)[C@@H](C)CN(C(=O)Cc1ccccn1)[C@H](C)CO2` the relative growth was inactive: 1. In the case of `C=CCC[C@@H](Cc1ccc(F)cc1)C(=O)OC[C@@H](Cc1c[nH]c2ccccc12)NC(=O)[C@@H](CC=C)CC(=O)N[C@@H](CO)Cc1ccccc1`, the relative growth is reported as inactive: 1.01. For `CC(C)NC(=O)N(C)C[C@@H]1OCCCC[C@H](C)Oc2ccc(NC(=O)Nc3ccc(F)cc3)cc2C(=O)N([C@@H](C)CO)C[C@@H]1C`, the relative growth was inactive: 1.02. For `C/C=C/c1cnc2c(c1)C(=O)N([C@@H](C)CO)C[C@@H](C)[C@H](CN(C)S(=O)(=O)c1ccc(OC)cc1)O2`, the relative growth was inactive: 1.01. With `COc1ccc(NC(=O)N2C[C@@H](O)COC[C@@H]3O[C@@H](CC(=O)NCc4ccccc4OC)CC[C@H]32)cc1` the relative growth was inactive: 0.991. In the case of `COc1ccc2c3c([nH]c2c1)[C@@H](CO)N(Cc1cc(ccc1F)F)C[C@]13CCN(CC1)C(=O)CN(C)C`, the relative growth is reported as inactive: 0.976. For `Cc1noc(C)c1S(=O)(=O)N(C)C[C@@H]1Oc2ccc(NC(=O)Nc3ccc4c(c3)OCO4)cc2CC(=O)N([C@H](C)CO)C[C@H]1C`, the relative growth was inactive: 0.993. `C[C@H]1CN([C@@H](C)CO)C(=O)c2cc(N(C)C)ccc2O[C@H]1CN(C)S(=O)(=O)c1ccc(Cl)cc1` was tested, and the relative growth was inactive: 0.995. For `COc1ccc(CN(C)C[C@@H]2Oc3ccc(NS(C)(=O)=O)cc3C(=O)N([C@H](C)CO)C[C@H]2C)cc1`, the relative growth was inactive: 1.04. In the case of `O=C(NCC(=O)N1CCOCC1)c1ccccc1`, the relative growth is reported as inactive: 0.937. `Nn1c(CO)nc2ccccc21` was tested, and the relative growth was inactive: 1.02. For `C[C@@H]1CN([C@H](C)CO)C(=O)c2cc(NC(=O)Nc3ccc(C(F)(F)F)cc3)ccc2O[C@@H]1CN(C)Cc1ccc(C(F)(F)F)cc1`, the relative growth was inactive: 1.03. With `O=C(C[C@@H]1C=C[C@@H](NC(=O)c2ccc3c(c2)OCO3)[C@@H](CO)O1)NCc1ccc(Oc2ccccc2)cc1` the relative growth was inactive: 1.01. In the case of `O=C(C[C@@H]1C[C@@H]2c3cc(NC(=O)Cc4ccncc4)ccc3O[C@@H]2[C@H](CO)O1)NCc1cccc(F)c1`, the relative growth is reported as inactive: 0.993. `C[C@@H]1CN([C@@H](C)CO)C(=O)Cc2cc(NC(=O)Nc3ccc(C(F)(F)F)cc3)ccc2O[C@@H]1CN(C)C(=O)Nc1ccc(C(F)(F)F)cc1` was tested, and the relative growth was inactive: 1.02. For `CC[C@@]1(C)CC(=O)NC1=O`, the relative growth was inactive: 0.991. With `COc1cccc(C#Cc2ccc3c(c2)O[C@@H](CN(C)C(=O)c2ccccn2)[C@@H](C)CN([C@H](C)CO)S3(=O)=O)c1` the relative growth was inactive: 0.974. For `CCS(=O)(=O)N1C[C@]2(CN(Cc3cc(ccc3F)F)C2)c2c(n(c3cc(ccc23)OC)C)[C@H]1CO`, the relative growth was inactive: 0.988. For `C[C@H](CO)N1C[C@H](C)[C@@H](CN(C)C(=O)NC2CCCCC2)Oc2c(NC(=O)C3CC3)cccc2C1=O`, the relative growth was inactive: 1.01. With `C[C@H]1CCCCO[C@H](CN(C)Cc2ccncc2)[C@@H](C)CN([C@@H](C)CO)C(=O)c2cc(NS(=O)(=O)c3ccc(Cl)cc3)ccc2O1` the relative growth was inactive: 0.99. With `Cc1cc(=O)nc(-n2ncc(C#N)c2N)[nH]1` the relative growth was inactive: 1.01. `NC(=O)CSc1nnnn1-c1cccc(O)c1` was tested, and the relative growth was inactive: 0.984. With `C[C@]12NC(=O)N[C@H](c3ccccc3O1)[C@H]2CO` the relative growth was inactive: 1.03. `Cn1cnc(=N)c2[nH]cnc21` was tested, and the relative growth was inactive: 0.995. In the case of `CO[C@H]1CN(C)C(=O)c2ccc(NC(=O)NC(C)C)cc2OC[C@H](C)N(Cc2ccc(-c3ccccn3)cc2)C[C@H]1C`, the relative growth is reported as inactive: 0.999. For `CCS(=O)(=O)N1CC[C@]2(CC1)CN([C@@H](CO)c1c2c2ccc(cc2n1C)OC)C(=O)c1cccc(c1)F`, the relative growth was inactive: 1. With `CCc1cccc(NC(=O)O[C@H]2[C@H](OC(=O)Nc3ccccc3-c3ccccc3)[C@H](OC(=O)Nc3ccccc3-c3ccccc3)[C@@H](OC)O[C@@H]2CO)c1` the relative growth was inactive: 1.02. In the case of `C[C@H]1CCCCO[C@@H](CN(C)Cc2ccc(C(=O)O)cc2)[C@@H](C)CN([C@@H](C)CO)C(=O)c2cc(NC(=O)C3CCCCC3)ccc2O1`, the relative growth is reported as inactive: 0.992. With `Cc1nc(N(C)C)ncc1C(=O)O` the relative growth was inactive: 1.01. For `Cc1ccc(S(=O)(=O)N[C@@H](Cc2ccccc2)C(=O)NCCn2cc(CCC(=O)NO)nn2)cc1`, the relative growth was inactive: 0.999. For `C[C@H](CO)N1C[C@H](C)[C@@H](CN(C)Cc2ccncc2)Oc2ccc(NS(=O)(=O)c3cccs3)cc2C1=O`, the relative growth was inactive: 0.989. In the case of `O=C1[C@H](Cc2ccc(C(F)(F)F)cc2)CCn2cc(nn2)COC[C@@H]2CCCCN2C(=O)[C@H](Cc2ccc(C(F)(F)F)cc2)CCn2cc(nn2)COC[C@@H]2CCCCN12`, the relative growth is reported as inactive: 0.996. In the case of `COc1ccc(NC(=O)N(C)C[C@H]2Oc3ccc(NS(=O)(=O)c4cn(C)cn4)cc3C(=O)N([C@@H](C)CO)C[C@H]2C)cc1`, the relative growth is reported as inactive: 0.956. `COc1ccc(CN(C)C[C@@H]2OCCCC[C@@H](C)Oc3ccc(NS(=O)(=O)c4ccc(C)cc4)cc3C(=O)N([C@@H](C)CO)C[C@H]2C)cc1` was tested, and the relative growth was inactive: 0.999. For `C[C@H]1CN([C@@H](C)CO)C(=O)c2cccc(NC(=O)c3ccncc3)c2O[C@H]1CN(C)S(=O)(=O)c1ccc(F)cc1`, the relative growth was inactive: 1. In the case of `C[C@H](CO)N1C[C@H](C)[C@@H](CN(C)S(=O)(=O)c2cn(C)cn2)Oc2ncc(/C=C/c3ccccc3)cc2C1=O`, the relative growth is reported as inactive: 1.03. In the case of `CO[C@@H](CN(C)C(=O)c1ccc2c(c1)OCO2)[C@@H](C)CN([C@H](C)CO)S(=O)(=O)c1ccc(F)cc1`, the relative growth is reported as inactive: 0.946. `Cc1ccc(S(=O)(=O)N[C@@H](Cc2ccccc2)C(=O)NCCn2cc(CN3C(=O)COC[C@H]3c3ccccc3)nn2)cc1` was tested, and the relative growth was inactive: 0.986. In the case of `COc1ccc2c3c([nH]c2c1)[C@H](CO)N(C[C@]13CCN(CC1)C(=O)Nc1ccc(cc1)F)C(=O)c1ccc(cc1)F`, the relative growth is reported as inactive: 0.984. In the case of `C[C@@H]1CN([C@@H](C)CO)C(=O)Cc2cc(NS(C)(=O)=O)ccc2O[C@@H]1CN(C)Cc1ccc(C(F)(F)F)cc1`, the relative growth is reported as inactive: 1.02. In the case of `C[C@@H]1CN([C@H](C)CO)C(=O)c2ccccc2-c2ccccc2CO[C@@H]1CN(C)Cc1ccc(Oc2ccccc2)cc1`, the relative growth is reported as inactive: 0.997. For `C[C@@H](O)C#Cc1ccc2c(c1)O[C@H](CN(C)C(=O)c1ccccc1)[C@@H](C)CN([C@@H](C)CO)S2(=O)=O`, the relative growth was inactive: 1. `C[C@@H]1CCCCO[C@H](CN(C)S(=O)(=O)c2ccc(F)cc2)[C@@H](C)CN([C@@H](C)CO)C(=O)c2cc(NC(=O)C3CCCCC3)ccc2O1` was tested, and the relative growth was inactive: 1.02. For `COc1ccc(Cn2cc[nH]c(=O)c2=O)cc1`, the relative growth was inactive: 0.996. With `CC(C)NC(=O)Nc1ccc2c(c1)C(=O)N([C@@H](C)CO)C[C@@H](C)[C@@H](CN(C)C(=O)Nc1ccc3c(c1)OCO3)O2` the relative growth was inactive: 0.991. In the case of `C[C@@H]1CCCCO[C@H](CN(C)Cc2ccc(Cl)c(Cl)c2)[C@H](C)CN([C@@H](C)CO)C(=O)c2cc(NC(=O)Nc3ccc4c(c3)OCO4)ccc2O1`, the relative growth is reported as inactive: 0.997. `CN1C[C@@H](CO)Oc2ccccc21` was tested, and the relative growth was inactive: 1.02. `COc1ccc2c(c1)OCC(=Cc1ccc(OC)c(O)c1)C2=O` was tested, and the relative growth was inactive: 1.05. For `CC(NC(=NC#N)Nc1ccncc1)C(C)(C)C` (stereo not drawn), the relative growth was inactive: 1.1. For `C[C@@H]1CN([C@H](C)CO)C(=O)c2cc(NC(=O)c3ccncc3)ccc2O[C@@H](C)CCCCO[C@H]1CN(C)C(=O)Nc1cccc2ccccc12`, the relative growth was inactive: 1.02. With `C[C@@H]1CN([C@H](C)CO)C(=O)CCCn2cc(nn2)CO[C@H]1CN(C)C(=O)Nc1ccc2c(c1)OCCO2` the relative growth was inactive: 1. For `Cc1noc(C)c1S(=O)(=O)Nc1ccc2c(c1)C(=O)N([C@@H](C)CO)C[C@@H](C)[C@H](CN(C)S(=O)(=O)c1cn(C)cn1)OCCCC[C@H](C)O2`, the relative growth was inactive: 0.994. `Cc1noc(C)c1S(=O)(=O)N(C)C[C@@H]1OCCCC[C@H](C)Oc2ccc(NC(=O)Nc3cccc4ccccc34)cc2C(=O)N([C@H](C)CO)C[C@@H]1C` was tested, and the relative growth was inactive: 1.04. `C[C@@H]1CN([C@H](C)CO)C(=O)Cc2cc(NS(=O)(=O)c3ccc(Cl)cc3)ccc2O[C@H]1CN(C)Cc1ccc(C(F)(F)F)cc1` was tested, and the relative growth was inactive: 0.959.
